# Laboratory results: paper PMC4336329 (PLoS ONE, 2015)
# The campaign covered roughly 310,000 compounds. About 14,000 (4.5%) showed an effect of 50% or more. Effects have a minus sign here. The list shows a part of the results.
# Target: human ether-à-go-go-related gene (hERG) potassium channel (human, UniProt Q12809)
# Test: primary screen, population patch clamp on CHO cells stably expressing hERG
# 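Further: peak tail current of the secondary pulse compared with the same well before compound.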
# Chain of human ether-à-go-go-related gene (hERG) potassium channel (Q12809 whole entry, looked up): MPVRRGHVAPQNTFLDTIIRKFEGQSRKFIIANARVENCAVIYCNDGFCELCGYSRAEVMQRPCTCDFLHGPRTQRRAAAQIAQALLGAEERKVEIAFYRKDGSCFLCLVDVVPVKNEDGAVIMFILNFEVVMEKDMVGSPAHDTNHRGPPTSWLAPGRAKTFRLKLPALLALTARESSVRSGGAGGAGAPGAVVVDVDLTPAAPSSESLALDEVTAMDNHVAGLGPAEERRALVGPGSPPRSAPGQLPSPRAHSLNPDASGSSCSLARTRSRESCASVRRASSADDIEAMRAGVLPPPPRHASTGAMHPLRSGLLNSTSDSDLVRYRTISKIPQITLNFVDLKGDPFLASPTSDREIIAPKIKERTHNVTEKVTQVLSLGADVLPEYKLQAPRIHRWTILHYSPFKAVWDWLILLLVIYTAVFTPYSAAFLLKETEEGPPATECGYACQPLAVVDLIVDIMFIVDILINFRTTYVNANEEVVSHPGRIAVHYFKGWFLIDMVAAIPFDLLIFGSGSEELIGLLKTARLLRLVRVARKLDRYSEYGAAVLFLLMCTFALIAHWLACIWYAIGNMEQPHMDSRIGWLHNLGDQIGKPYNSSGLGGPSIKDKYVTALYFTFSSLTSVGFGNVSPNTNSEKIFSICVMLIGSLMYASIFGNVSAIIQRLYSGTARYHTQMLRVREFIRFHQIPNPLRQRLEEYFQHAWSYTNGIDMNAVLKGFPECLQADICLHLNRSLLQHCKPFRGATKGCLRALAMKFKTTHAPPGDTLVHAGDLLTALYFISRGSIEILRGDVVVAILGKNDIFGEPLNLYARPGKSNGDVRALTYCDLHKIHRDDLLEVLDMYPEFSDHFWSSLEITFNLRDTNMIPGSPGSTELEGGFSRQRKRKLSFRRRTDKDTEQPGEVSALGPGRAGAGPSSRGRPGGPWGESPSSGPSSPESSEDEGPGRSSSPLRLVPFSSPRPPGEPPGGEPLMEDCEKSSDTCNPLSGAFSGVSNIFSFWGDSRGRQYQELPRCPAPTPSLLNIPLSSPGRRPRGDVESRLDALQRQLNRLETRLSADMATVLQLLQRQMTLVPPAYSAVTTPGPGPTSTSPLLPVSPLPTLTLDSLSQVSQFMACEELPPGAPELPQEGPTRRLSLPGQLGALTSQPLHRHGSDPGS
row,Structure (SMILES),"hERG current change (%, negative = inhibition) at 10uM [%]"
1,NS(=O)(=O)c1ccc(CCNC(=O)CSc2ccsc2[N+](=O)[O-])cc1,14.5
2,COc1ccc(C(=O)O/N=C(\N)c2ccc(Br)cc2)cc1,17.6
3,CC(C)NS(=O)(=O)c1ccc2c(c1)NCC2,20.7
4,Oc1ccc(/C=N/N(c2ccccc2)c2ccccc2)c(O)c1O,19.3
5,Cc1cc(F)ccc1S(=O)(=O)N1CCCOC1CNC(=O)C(=O)NCCCN1CCOCC1 (stereo not drawn),11.6
6,Cc1cc(C(C)(C)C)oc1C(=O)N(CC(=O)NC1CCCC1)Cc1ccc(Cl)cc1,-2.27
7,C/C(=N\NC(=O)c1ccc(Cl)c(Cl)c1)c1ccccn1,13.1
8,CCOc1ccc(-n2cc(C(=O)N3CCC(C)CC3)c3cc(OC)c(OC)cc3c2=O)cc1,-25.7
9,O=C(NCCc1csc(-c2cccnc2)n1)c1ccccc1Br,-4.05
10,COc1cccc(C(=O)OC(C)C(=O)Nc2ccc3c(c2)OCO3)c1 (stereo not drawn),-0.0476
11,N#Cc1cc(-c2ccccc2)nc(Oc2ccc(Cl)cc2)n1,3.36
12,Cc1nc(NC(=O)CCl)sc1C(=O)N(C)C,18.1
13,COc1ccccc1NC(=O)COC(=O)c1c(C)nn(-c2ccccc2)c1C,-9.56
14,COc1ccc(/C=N/n2c(-c3n[nH]c4c3CCC4)n[nH]c2=S)cc1,22.1
15,COc1ccccc1C(=O)OCC(=O)Nc1ccc(OC(F)F)cc1,-32.2
16,CCC(C)(C)n1nnnc1CN(Cc1cc2cc(OC)c(OC)cc2[nH]c1=O)C1CCCC1,8.29
17,COc1ccc(N2CCN(C(CNS(=O)(=O)c3cccs3)c3cccnc3)CC2)cc1 (stereo not drawn),-72.5
18,CN1C[C@@H]2C[C@@H](c3cccn3-c3nccs3)N3CCC[C@@]23C1=O,-19.2
19,COc1ccc(NC(=O)c2ccccc2NC(=O)NC2CCCCC2)cc1,6
20,Cc1ccc(C(=O)Nc2ccccc2N2CCCC2)s1,-15.8
21,CCCN(CC(=O)Nc1ccccc1OC)C(=O)CSc1nc(C)cc(C)n1,-6.81
22,COc1ccccc1NC(=O)c1ccc2c(c1)CCN2S(C)(=O)=O,3.9
23,CC(C)c1nc(SCC(=O)Nc2ccc(C(=O)O)cc2)c2c3c(sc2n1)CCCC3,4.84

row,Structure (SMILES),"hERG current change (%, negative = inhibition) at 10uM [%]"
1,O=C(Cn1c(-c2ccccc2)noc1=O)Nc1ccc(N2CCCCCC2)cc1,6.95
2,CC1CCCC(NC(=O)c2ccc3c(c2)OCCO3)C1C (stereo not drawn),-10.2
3,Cc1cc(N2CCN(C)CC2)nc2ccccc12,-0.28
4,CC(Sc1n[nH]c(N)n1)C(=O)C12CC3CC(CC(C3)C1)C2 (stereo not drawn),-22.2
5,CCCCN(C)CCNC(=O)CCn1nc(-c2ccc(C)cc2)ccc1=O,-83.4
6,COc1ccccc1NS(=O)(=O)c1cc(C(=O)NCc2cccnc2)ccc1C,-23.7
7,O=C(Cn1c(=O)oc2ccccc21)NC(=O)NCc1ccccc1,2.19
8,O=C(COc1ccc(/C=N/NC(=O)c2cc3ccccc3o2)cc1Cl)Nc1ccccc1,6.96
9,CC(=O)c1ccc(S(=O)(=O)NCCC(=O)NC(C)c2ccncc2)cc1 (stereo not drawn),8.78
10,CCOC(=O)N1CCN(C(=O)CCc2ccc(S(=O)(=O)NC(C)C)cc2)CC1,14.2
11,COc1ccccc1CC1CC(=O)N(c2cccc(Cl)c2C)C1=O (stereo not drawn),9.06
12,O=C(Nc1ccc2c(c1)OCCO2)C1CC(c2ccccc2Cl)=NO1 (stereo not drawn),9
13,COc1ccc(NC(=O)CSc2ccc(F)cc2)cc1S(=O)(=O)N1CCCCC1,-16
14,COc1cccc(CC(NC(C)=O)C(=O)NC2CCN(c3nnnn3-c3ccccc3)CC2)c1 (stereo not drawn),8.16
15,CCOc1cc2[nH]c(=S)n(CC3CCCN3CC)c(=O)c2cc1OCC (stereo not drawn),-26.5
16,Cc1ccc(N=Cc2ccc(N(C)C)cc2)cc1C,9.65
17,COc1ccc(Cl)cc1NC(=O)NNC(=O)c1ccccn1,7.79
18,COc1cc(OC)c(/C=C2\C(=O)Nc3ccccc32)c(OC)c1,-0.857
19,Cc1ccc(CNC(=O)C(=O)NCC2OCCCN2S(=O)(=O)c2ccc(F)cc2)cc1 (stereo not drawn),-12.1
20,COCCn1cnnc1SCC(=O)Nc1cccc(S(=O)(=O)N(C)c2ccccc2)c1,-32.1
21,CN(CC(=O)Nc1ccc2c(c1)OCO2)S(=O)(=O)c1ccc2c(c1)CCC(=O)N2,-22.7
22,Cc1ccccc1OCC(=O)NNC=O,22.9
